{"source": "PubChem BioAssay AID485344", "about": "(National Center for Advancing Translational Sciences (NCATS), 2010)", "note": "Values joined by “and” are separate entries in the source; they are usually repeats but may differ in a detail not shown here. Equal values may be shown once. The whole screen tested about 340,000 compounds, of which about 6,900 (2%) were called active. Cut-off read from the data, not from the text of the source: active = inhibition above about 30%; inactive = below that, where a call was filed. The entries are a selection whose mix differs from that of the whole data set. Where no call is shown, the source filed none.", "data": [{"biological_target": "D(2) dopamine receptor (Homo sapiens) (UniProt P14416)", "sequence (P14416 whole entry, looked up)": "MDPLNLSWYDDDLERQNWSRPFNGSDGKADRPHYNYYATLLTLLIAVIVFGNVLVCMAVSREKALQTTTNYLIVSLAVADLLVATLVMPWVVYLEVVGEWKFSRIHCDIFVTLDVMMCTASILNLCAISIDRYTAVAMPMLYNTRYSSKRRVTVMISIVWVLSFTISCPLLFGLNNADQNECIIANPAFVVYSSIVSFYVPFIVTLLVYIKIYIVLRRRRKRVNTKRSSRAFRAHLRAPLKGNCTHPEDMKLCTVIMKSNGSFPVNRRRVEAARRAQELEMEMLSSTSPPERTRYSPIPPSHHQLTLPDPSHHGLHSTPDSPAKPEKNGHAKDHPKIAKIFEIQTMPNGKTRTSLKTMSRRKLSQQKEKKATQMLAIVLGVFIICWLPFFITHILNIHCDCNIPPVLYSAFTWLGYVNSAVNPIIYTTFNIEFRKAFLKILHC", "assay": "HTS Assay for Allosteric Antagonists of the Human D2 Dopamine Receptor: Primary Screen for Antagonists; note: 0% is about no effect", "details": "HEK293 TREx D2 cells, calcium flux, dopamine EC80; at 10 µM; stronger effect = higher value", "in_short": "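Antagonism is scored as inhibition of an EC80 dopamine-evoked calcium signal in a force-coupled, tetracycline-inducible HEK293 T-REx D2 line, with compound present 180 s before agonist.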", "values": [{"smiles": "CC(=O)c1ccc(NC(=O)CCc2c(C)nn(-c3ccc(N4CCCCC4)nn3)c2C)cc1", "inhibition": "0.908%"}, {"smiles": "Cc1csc2nc(CCNS(=O)(=O)c3ccc(F)cc3)cn12", "inhibition": "-16.7%"}, {"smiles": "COc1ccc(CNc2ncnc3c2cnn3-c2ccc(C)c(C)c2)cc1", "inhibition": "9.92%"}, {"smiles": "COc1ccc(CN2C(=O)c3oc4ccccc4c(=O)c3C2c2ccc(O)c(OC)c2)cc1", "note": "(stereo unspecified)", "inhibition": "9.79%"}, {"smiles": "CCc1ccc(-n2nc(C)c3c(C)cc(=O)n(CC(=O)Nc4ccccc4C(=O)OC)c32)cc1", "inhibition": "-2.07%"}, {"smiles": "CCCCOc1ccc(C(=O)N/C(=C\\c2ccc(Br)cc2)C(=O)NC2CCCCC2)cc1", "inhibition": "-3.91%"}, {"smiles": "CSCCC(NS(=O)(=O)c1ccc2c(c1)oc(=O)n2C)C(=O)N1CCN(c2ccc(F)cc2)CC1", "note": "(stereo unspecified)", "inhibition": "19.6%"}, {"smiles": "O=C(Nc1cccc(F)c1)C1CCN(c2nc3ccccc3[nH]2)CC1", "inhibition": "11%"}, {"smiles": "Cc1cccc(-n2ccnc2SCC(=O)Nc2ccc3c(c2)OCO3)c1", "inhibition": "-19.7%"}, {"smiles": "COc1cccc(C(=O)N2CCCC(CCC(=O)NCc3ccc(F)c(F)c3)C2)c1", "note": "(stereo unspecified)", "inhibition": "active: 34.4%"}, {"smiles": "Cc1nc2c3ccccc3nc(NNC(=O)CCC(=O)N3CCN(c4cccc(C(F)(F)F)c4)CC3)n2n1", "inhibition": "-17.7%"}, {"smiles": "CCc1cccc(NC(=O)CCS(=O)(=O)c2ccc3nc(C)sc3c2)c1", "inhibition": "7.03%"}, {"smiles": "Cc1ccc([N+](=O)[O-])cc1NC(=O)CN(C1CCCCC1)S(=O)(=O)c1ccc(Cl)cc1", "inhibition": "active: 52.7%"}, {"smiles": "O=C(CC1SC(N2CCOCC2)=NC1=O)Nc1cc([N+](=O)[O-])ccc1Cl", "note": "(stereo unspecified)", "inhibition": "active: 54.4%"}, {"smiles": "CCCCCCCC(=O)N/N=C(\\C)c1ccc(O)cc1O", "inhibition": "active: 71.8%"}, {"smiles": "O=C(CSc1nc2c([nH]c3ccccc32)c(=O)n1-c1ccccc1)N1CCCCCC1", "inhibition": "-13.5%"}, {"smiles": "CC1CCc2c(sc(NC(=O)COc3ccccc3C(C)(C)C)c2C#N)C1", "note": "(stereo unspecified)", "inhibition": "-1.46%"}, {"smiles": "Cc1ccc(NC(=O)Cn2c(SCc3ccc(F)cc3)nc3cccnc32)cc1F", "inhibition": "-15.1%"}, {"smiles": "O=C(O)c1ccc(NC(=O)c2cc3ccccc3o2)cc1", "inhibition": "5.6%"}, {"smiles": "O=c1c2ccccc2[nH]c(=S)n1CCCN1CCN(c2ccccc2F)CC1", "inhibition": "active: 80.8%"}, {"smiles": "COc1ccc(C(=O)NCC(c2cccnc2)N2CCc3ccccc32)cc1OC", "note": "(stereo unspecified)", "inhibition": "-10.1%"}, {"smiles": "Cc1cccc(CNC(=O)c2ccc(NC(=O)N3CCSc4ccccc43)cc2)c1", "inhibition": "11.9%"}, {"smiles": "O=C1c2cc3ccccc3c(-c3ccccc3)c2C(=O)N1c1ccccn1", "inhibition": "active: 46.5%"}, {"smiles": "Cc1oc2c(c(C)cc3oc(=O)c(CC(=O)NCc4ccccc4)c(C)c32)c1C", "inhibition": "6.41%"}, {"smiles": "CCOC(=O)c1cc(-c2ccccc2)n(-c2cccc(C(=O)Nc3cccc(C(C)=O)c3)c2)c1C", "inhibition": "5.42%"}, {"smiles": "COc1cccc(N2CCN(C(=O)CN3C(=O)COc4ccc(S(=O)(=O)N5CCC(C)CC5)cc43)CC2)c1", "inhibition": "19.1%"}, {"smiles": "Cc1c(Cl)cccc1NC(=O)Cn1cc2c(n1)CCCC2", "inhibition": "-2.1%"}, {"smiles": "COc1ccc(C)cc1-n1nnc(C(=O)Nc2cccc(SC)c2)c1C", "inhibition": "13.1%"}, {"smiles": "CNC(=O)c1c(NC(=O)c2ccc(S(=O)(=O)N3CCCCC3C)cc2)sc2c1CCC2", "note": "(stereo unspecified)", "inhibition": "-11.2%"}, {"smiles": "Cc1ccc(Nc2c(-c3cccnc3)nc3ccc(Br)cn23)cc1", "inhibition": "2.15%"}, {"smiles": "COc1ccc(-c2nnc(SCC(=O)N(C)Cc3ccccc3)o2)cc1OC", "inhibition": "13.5%"}, {"smiles": "O=S(=O)(Nc1cccc(-c2ccc(N3CCCC3)nn2)c1)c1ccc(F)c(C(F)(F)F)c1", "inhibition": "9.23%"}, {"smiles": "Cc1ccc(NC(=O)Cn2cc(S(=O)(=O)N3CCC(C)CC3)c3ccccc3c2=O)c(Br)c1", "inhibition": "10.5%"}, {"smiles": "Cc1cccc(Oc2ccc3c(c2)Oc2ccccc2NC3=O)c1", "inhibition": "-0.286%"}, {"smiles": "CCCCN(CCCNC(=O)c1c(C)oc2nc[nH]c(=O)c12)Cc1ccccc1", "inhibition": "-12.8%"}, {"smiles": "COc1ccc(CNC(=O)c2cnn(-c3ccc(F)cc3)c2-n2cccc2)cc1", "inhibition": "13.4%"}, {"smiles": "O=C(Nc1ccc(Cl)cc1)N1CCC(c2ccccc2)C1", "note": "(stereo unspecified)", "inhibition": "14.2%"}, {"smiles": "CCCN(C(=O)Cn1ncc2c([nH]c3ccc(C)cc32)c1=O)c1ccccc1C", "inhibition": "2.44%"}, {"smiles": "CCC(C)NC(=O)CN1C(=O)COc2ccc(S(=O)(=O)N3CCOCC3)cc21", "note": "(stereo unspecified)", "inhibition": "23.6% and active: 43.6%"}, {"smiles": "CCOc1ccccc1NC(=O)c1c(NCc2sccc2C)sc2c1CCC(C)C2", "note": "(stereo unspecified)", "inhibition": "-27.9%"}, {"smiles": "COc1cccc(N2CC(NC(=O)/C=C\\c3ccc(OC)c(OC)c3)CC2=O)c1", "note": "(stereo unspecified)", "inhibition": "-4.39%"}, {"smiles": "Cc1cc(-c2ccc(S(=O)(=O)Nc3ccc(Cl)cc3C)cc2)on1", "inhibition": "3.22%"}, {"smiles": "CCOC(=O)c1cccc2c1N[C@@H](c1ccc(F)cc1)[C@H]1CC=C[C@@H]21", "inhibition": "-2.12%"}, {"smiles": "Cc1ccc(CCNC(=O)c2ccc3c(=O)n(-c4ccccc4)c(=O)[nH]c3c2)cc1", "inhibition": "-5.05%"}, {"smiles": "CCCCC1CCC(C(=O)N2CC(=O)Nc3ccc(Cl)cc3C2c2ccc(F)cc2)CC1", "note": "(stereo unspecified)", "inhibition": "-12.5%"}, {"smiles": "COc1ccccc1CNc1nccn(-c2ccccc2)c1=O", "inhibition": "9.41%"}, {"smiles": "CCOc1ncccc1C(=O)OCC(=O)NC1CCCCCC1", "inhibition": "active: 30.8%"}, {"smiles": "CCC(C)NC(=O)c1sc2nc(C)c(C(=O)Nc3ccc(C)cc3C)c(-c3ccccc3Cl)c2c1N", "note": "(stereo unspecified)", "inhibition": "4.79%"}, {"smiles": "CCN(CC)c1ccc(-c2nc(-c3ccco3)no2)cc1[N+](=O)[O-]", "inhibition": "5.76%"}, {"smiles": "Cc1ccc(C)c(CNC(=O)c2cc3ccccn3n2)c1", "inhibition": "14.2%"}, {"smiles": "CCOC(=O)C1CCC(CN(Cc2cccc(Br)c2)S(=O)(=O)c2ccc(Cl)cc2)CC1", "note": "(stereo unspecified)", "inhibition": "-7.17%"}, {"smiles": "COc1ccc(NC(=O)Cn2cc(S(=O)(=O)Cc3ccc(F)cc3)c3ccccc32)cc1OC", "inhibition": "5.06%"}, {"smiles": "CCOC(=O)N1CCc2c(sc3c2C(=O)NC(c2ccccc2F)N3)C1", "note": "(stereo unspecified)", "inhibition": "11.8%"}, {"smiles": "CC1Cc2cc(S(=O)(=O)NCc3ccc(N(C)C)cc3)ccc2N1C(=O)C1CCC1", "note": "(stereo unspecified)", "inhibition": "6.34%"}, {"smiles": "CCN1C(=O)C(Cc2nc3ccccc3c(=O)n2-c2ccc(OC)cc2)c2ccccc21", "note": "(stereo unspecified)", "inhibition": "23.7%"}, {"smiles": "COc1ccc(N2CC(NC(=O)COc3ccc4ccccc4c3)CC2=O)cc1OC", "note": "(stereo unspecified)", "inhibition": "-26.3%"}, {"smiles": "Cc1c(C)n(C(=O)CN2CCC(C(N)=O)CC2)c2ccccc12", "inhibition": "active: 36.3%"}, {"smiles": "CC1=Nc2cc(C(=O)NCCc3ccc(Cl)cc3)ccc2Sc2c(C)ccc(C)c21", "inhibition": "7.19%"}, {"smiles": "CC1CCCCN1CCCNC(=O)c1cc(Sc2ccc(Cl)cc2)nc2ccccc12", "note": "(stereo unspecified)", "inhibition": "-10.7%"}, {"smiles": "CCOC(=O)CC(=O)CSc1nc2ccccc2c(=O)n1CCc1ccc(S(N)(=O)=O)cc1", "inhibition": "24.7%"}, {"smiles": "CC(=O)Nc1ccc(NC(=O)CCS(=O)(=O)c2ccc3c(c2)CC(=O)N3C)cc1", "inhibition": "2.13%"}]}]}
